The whole screen tested about 360,000 compounds, of which about 520 (0.14%) were called active. Inconclusive means that the source gave no clear call. Such entries were picked first, then a sample of the others. Calls follow the shape of the dose curve; as a rule, active = well fitted inhibition curve with a large enough effect; inconclusive = small, poorly fitted or top-dose-only effect; inactive = no such curve, though single readings can be large or run the other way. Potencies of inconclusive entries are left out as doubtful fits.
Each compound was assayed against Rap guanine nucleotide exchange factor 3 (Homo sapiens) (UniProt O95398) (assay: qHTS for Antagonist of cAMP-regulated guanine nucleotide exchange factor 3 (EPAC1): primary screen). Settings: EPAC1 GEF assay, Rap1b-BODIPY-GDP exchange fluorescence; activity change, negative = inhibition: at 115 µM (top of the series).
Sequence of UniProt O95398 (O95398 whole entry, looked up): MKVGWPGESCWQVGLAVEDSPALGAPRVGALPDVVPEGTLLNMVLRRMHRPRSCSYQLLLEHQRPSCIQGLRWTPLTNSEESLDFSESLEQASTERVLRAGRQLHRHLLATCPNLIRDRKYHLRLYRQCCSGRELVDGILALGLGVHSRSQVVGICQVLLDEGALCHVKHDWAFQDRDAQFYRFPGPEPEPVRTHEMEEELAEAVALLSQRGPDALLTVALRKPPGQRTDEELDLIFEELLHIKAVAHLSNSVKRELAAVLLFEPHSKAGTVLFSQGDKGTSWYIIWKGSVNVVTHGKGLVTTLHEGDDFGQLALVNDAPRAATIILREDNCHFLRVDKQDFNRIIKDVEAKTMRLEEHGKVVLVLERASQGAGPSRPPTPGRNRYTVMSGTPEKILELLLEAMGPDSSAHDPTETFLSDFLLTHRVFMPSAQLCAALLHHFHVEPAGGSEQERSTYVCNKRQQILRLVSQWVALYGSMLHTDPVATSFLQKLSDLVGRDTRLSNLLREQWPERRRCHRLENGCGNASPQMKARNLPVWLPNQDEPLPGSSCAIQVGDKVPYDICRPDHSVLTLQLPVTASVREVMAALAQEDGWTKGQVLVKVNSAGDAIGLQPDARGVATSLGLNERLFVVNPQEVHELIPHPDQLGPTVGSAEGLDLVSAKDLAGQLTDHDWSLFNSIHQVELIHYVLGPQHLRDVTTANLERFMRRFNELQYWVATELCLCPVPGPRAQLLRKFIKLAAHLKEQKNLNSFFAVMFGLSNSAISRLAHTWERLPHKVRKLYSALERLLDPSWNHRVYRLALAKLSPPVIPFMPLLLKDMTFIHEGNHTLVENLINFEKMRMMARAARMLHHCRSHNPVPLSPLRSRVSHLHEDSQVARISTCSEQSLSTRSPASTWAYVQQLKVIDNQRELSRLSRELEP
Also: nearly all actives have a fitted effect of over 50% in size.
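For activity change, negative = inhibition in this document: plate controls were vehicle for no effect and positive control for full effect.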
Potency is read from the fitted curve at half-maximal effect; tags tell the direction and shape of the fitted curve.

Row | Structure (SMILES) | Potency | activity change, negative = inhibition
1 | C=CCSC1=N/C(=C\C=C\c2ccco2)C(=O)S1 | inconclusive [inhibitor, partial curve] | –
2 | O=C1/C(=C/c2ccc(O)c(O)c2)Oc2cc(O)ccc21 | inconclusive [inhibitor, single point] | –
3 | FC(F)(F)C1=Nc2cccc3cccc(c23)N1 | inconclusive [inhibitor, full curve] | –
4 | O=S(=O)(Nc1cc2nc3ccccc3nc2n1Cc1ccccc1)c1ccc(Cl)cc1 | inconclusive [inhibitor, full curve] | –
5 | O=C(Nc1ccccc1Oc1cccnc1)C1CCCN(C/C=C/c2ccc(F)cc2)C1 (centres undefined) | – | inactive: -4.58%
6 | COc1ccc(NC(C)C(=O)N/N=C/c2ccccc2OCc2ccc(Br)cc2)cc1 (centres undefined) | – | inactive: 13.4%
7 | CC(C)n1c(O)c(N=NC(=O)Cn2ccc(C(F)(F)F)n2)c2ccccc21 | inconclusive [inhibitor, partial curve] | –
8 | CSCCC(NS(=O)(=O)c1ccc(Cl)cc1)C(=O)OCC(=O)c1c(C)[nH]c2ccccc12 (centres undefined) | inconclusive [inhibitor, partial curve, poor fit] | –
9 | COc1cccc(Nc2ncnc3sc(C)cc23)c1 | inconclusive [inhibitor, single point] | –
10 | COc1ccc(S(=O)(=O)N2CCN(CCOc3ccccc3Cl)CC2)cc1OC | inconclusive [inhibitor, full curve, poor fit] | –
11 | Cc1ccc(C(=O)/C=C/c2cc(Br)cc(Br)c2O)o1 | inconclusive [inhibitor, partial curve] | –
12 | CCOC(=O)c1[nH]c2c(c1-c1ccc(OC)cc1)C(=O)CC(c1ccc(OC)c(OC)c1)C2 (centres undefined) | inconclusive [inhibitor, partial curve] | –
13 | CSc1nc2ccc(NS(=O)(=O)c3c(Cl)cccc3Cl)cc2s1 | inconclusive [inhibitor, partial curve] | –
14 | CCOC(=O)c1sc(N2C(=O)C(O)=C(C(=O)c3ccco3)C2c2ccc([N+](=O)[O-])cc2)nc1C (centres undefined) | inconclusive [inhibitor, single point] | –
15 | C[C@@H]1CN([C@H](C)CO)C(=O)CCCn2nncc2CO[C@H]1CN(C)Cc1ccc2cccnc2c1 | – | inactive: -1.33%
16 | CC(=O)c1ccc(NC(=O)C(C)N2CCN(C/C=C/c3ccccc3)CC2)cc1 (centres undefined) | – | inactive: -0.268%
17 | CCOC(=O)C1=C(N)OC2=C(C(=O)CC(C)(C)C2)C1c1cc(CSc2nnnn2C)cs1 (centres undefined) | – | inactive: 2.64%
18 | CCOc1ccc(CCN2C(=O)C(=O)N([C@@H](CC(C)C)CN3CCC[C@@H]3CN3C(=O)C(=O)NC[C@@H]3Cc3ccccc3)C[C@@H]2CC(C)C)cc1 | inconclusive [inhibitor, single point] | –
19 | COC(=O)c1cc(S(=O)(=O)N2CCN(c3ccc(C(C)=O)cc3)CC2)c[nH]1 | – | inactive: 17.4%
20 | O=[N+]([O-])c1cc([N+](=O)[O-])c2nonc2c1Nc1ccc(O)cc1 | inconclusive [inhibitor, single point] | –
21 | COc1ccc(-c2nn(CCC#N)cc2/C=N/O)cc1 | inconclusive [inhibitor, single point] | –
22 | CCCCn1nnnc1C(c1ccccc1)N1CCN(c2ccccn2)CC1 (centres undefined) | inconclusive [inhibitor, single point] | –

Row | Structure (SMILES) | Potency | activity change, negative = inhibition
23 | COc1cccc(C(C(=O)NC2CCCC2)N2CCN(c3cc(C)nc4ccccc34)CC2)c1OC (centres undefined) | – | inactive: 1.7%
24 | Nc1c(C(=O)O)sc2nc(-c3ccccc3)cc(-c3ccc(Cl)cc3)c12 | – | inconclusive: -35% [inhibitor]
25 | O=C(NCc1ccco1)c1cccc2c1C(=O)c1ccc(N3CCCC3)cc1S2(=O)=O | – | inactive: 12.1%
26 | O=CN1CCN(c2ncnc3c2nnn3Cc2c(F)cccc2Cl)CC1 | inconclusive [inhibitor, partial curve] | –
27 | COc1ccccc1N=Nc1c(C)noc1C | – | inactive: -5.17%
28 | CN(C)C(=O)c1ccc(Nc2nnc(-c3ccc(O)cc3)c3ccccc23)cc1 | – | inconclusive: -30.9% [inhibitor]
29 | COc1cccc(C(=O)NC2CC3CCCC(C2)N3CC(=O)Nc2ccccc2C(F)(F)F)c1 (centres undefined) | inconclusive [inhibitor, partial curve] | –
30 | COc1cc(OC)cc(C(=O)NC(C(=O)Nc2ccc3c(c2)OCO3)C(C)C)c1 (centres undefined) | inconclusive [inhibitor, single point] | –
31 | CS/C(N)=N/N=C/c1c(O)ccc2ccccc12 | inconclusive [inhibitor, partial curve] | –
32 | CC1(C(=O)NS(=O)(=O)c2ccccc2)CCN1C(=O)C1(c2ccc(Cl)cc2)CC1 (centres undefined) | inconclusive [inhibitor, partial curve] | –
33 | CC(NC(N)=O)C(=O)Nc1ccc(Cl)c(S(=O)(=O)Nc2ccc(Br)cc2)c1 (centres undefined) | inconclusive [inhibitor, partial curve] | –
34 | CCCn1cc(CN2CCC(C(=O)Nc3cccc(-c4cscn4)c3)CC2)c(C)n1 | inconclusive [inhibitor, full curve, poor fit] | –
35 | CC(NC(=O)C(=O)N1CCOCC1)C(c1cccs1)N1CCN(c2ccccc2)CC1 (centres undefined) | inconclusive [inhibitor, full curve, poor fit] | –
36 | CCCCn1c(N2CCC(Cc3ccccc3)CC2)nc2c1c(=O)[nH]c(=O)n2C | inconclusive [inhibitor, partial curve, poor fit] | –
37 | Cc1cc(C)nc(NS(=O)(=O)c2ccc(NC(=O)CN3C(=O)S/C(=C\c4ccccc4)C3=O)cc2)n1 | active: 79.4 µM | –
38 | O=C(O)CNC(=O)c1ccc(NS(=O)(=O)c2ccc3ccccc3c2)cc1 | inconclusive [inhibitor, partial curve] | –
39 | COc1ccc2[nH]c(CN3CCC(n4nccc4NC(=O)C4CC4)CC3)c(C)c2c1 | – | inactive: 0.388%
40 | Cc1c(-c2ccccc2)nc2ccccc2c1C(=O)OCC(=O)Nc1ncc(C(F)(F)F)cc1Cl | inconclusive [inhibitor, full curve] | –
41 | CCC(=O)c1ccc(N2CCN(C(=O)c3cccc(F)c3)CC2)c(F)c1 | inconclusive [inhibitor, single point] | –
42 | CCOC(=O)[C@]12CCCC=C1N(Cc1ccc(Cl)cc1Cl)C(=O)[C@H](CC(=O)N1CCCCC1)C2 | – | inactive: 24.7%
43 | Clc1nc2ccccc2cc1-c1nnn(-c2ccccc2Br)n1 | – | inactive: -7.62%
44 | COc1ccc(C2c3c(ncn(CCCO)c3=N)Oc3ccc4ccccc4c32)cc1 (centres undefined) | inconclusive [inhibitor, partial curve] | –

Row | Structure (SMILES) | Potency | activity change, negative = inhibition
45 | Cc1cccc2c(SCC(N)=O)nc(-c3ccccc3)nc12 | inconclusive [inhibitor, full curve, poor fit] | –
46 | COC(=O)N(C)C[C@@H]1OCc2cn(nn2)CCCC(=O)N([C@@H](C)CO)C[C@H]1C | – | inactive: -16.3%
47 | CCCCn1c(N)c(N(CC(C)C)C(=O)c2cccc(S(=O)(=O)N3CCCCCC3)c2)c(=O)[nH]c1=O | inconclusive [inhibitor, single point] | –
48 | O=C1C(=Cc2cccs2)Oc2ccccc21 | inconclusive [inhibitor, single point] | –
49 | CC(C)N(C(=O)CN1CCC(c2nc3ccccc3[nH]2)CC1)C(C)C | inconclusive [inhibitor, single point] | –
50 | O=C(O)c1ccc2c(=O)n(Cc3ccccc3)c(SCc3ccc([N+](=O)[O-])cc3)nc2c1 | – | inactive: -11.6%
51 | COc1cccc2sc(NN)nc12 | inconclusive [inhibitor, single point] | –
52 | COC(=O)c1ccccc1NC(=O)COC(=O)c1ccccc1N=Nc1ccc(N(C)C)cc1 | inconclusive [inhibitor, single point] | –
53 | COCCc1ccc(OC2(C)CCN(Cc3cccn3-c3nccs3)C2)cc1 (centres undefined) | inconclusive [inhibitor, full curve, poor fit] | –
54 | Cc1cc(C)n(CC(=O)c2cccc(N)c2)n1 | inconclusive [inhibitor, partial curve] | –
55 | CC(OC(=O)CCC(=O)c1cccs1)C(=O)NC1CCCCC1C (centres undefined) | inconclusive [inhibitor, partial curve] | –
56 | O=C1/C(=C/c2ccc(O)cc2)COc2ccccc21 | inconclusive [inhibitor, full curve] | –
57 | O=C(N/N=C/c1ccc(-c2ccc(Cl)c(C(=O)O)c2)o1)c1cc2c(ccc3ccccc32)o1 | active: 39.8 µM | –
58 | O=C(/C=C/c1ccco1)N1CCN(S(=O)(=O)c2cccs2)CC1 | inconclusive [inhibitor, single point] | –
59 | CCc1nnc(NC(=O)c2ccc(S(=O)(=O)N(CC)CC)cc2)s1 | inconclusive [inhibitor, single point] | –
60 | O=C(CCN1C(=O)S/C(=C\c2ccc(Cl)cc2)C1=O)Nc1ccc(C(=O)O)cc1 | inconclusive [inhibitor, single point] | –
61 | N#C/C(=C\c1ccc(N2CCCCC2)o1)C(N)=O | inconclusive [inhibitor, partial curve] | –
62 | C=C1C(=O)C23CCC4C(C)(C(=O)OC)CCCC4(C)C2CCC1(O)C3 (centres undefined) | inconclusive [inhibitor, single point] | –
63 | COc1cc(/C=N/NC(=O)c2cc(-c3cccc(OC(C)C)c3)nc3ccccc23)ccc1O | inconclusive [inhibitor, partial curve, poor fit] | –
64 | CCOC(=O)N1CCC(NC(=O)C2CCCN(Cc3nc(-c4ccc(CC)cc4)oc3C)C2)CC1 (centres undefined) | inconclusive [inhibitor, full curve, poor fit] | –

From PubChem BioAssay AID720709 (National Center for Advancing Translational Sciences (NCATS), 2013)
